This is one part of the list. Sequences were assembled here from the parent chain. Values near 0.05 are background.
B1: TEV protease; numbered along this chain (parent)
chain: MGESLFKGPRDYNPISSSICHLTNESDGHTTSLYGIGFGPFIITNKHLFRRNNGTLVVQSLHGVFKVKDTTTLQQHLVDGRDMIIIRMPKDFPPFPQKLKFREPQREERICLVTTNFQTKSMSSMVSDTSCTFPSGDGIFWKHWIQTKDGQCGSPLVSTRDGFIVGIHSASNFTNTNNYFTSVPKNFMELLTNQEAQQWVSGWRLNADSVLWGGHKVFMVKPEEPFQPVKEATQL

Variants of: B1
Test: raw area under fraction-flipped curve 0-4 h after induction (AUC4h, not background-subtracted), DNA-recorder readout of cleavage of the substrate (dimensionless); higher = more cleavage of the substrate by the protease variant
Conditions: temperature: 34 °C; time window: 0-4 h after rhamnose induction
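Further: Bxb1 expression induced with 0.2% (w/v) L-rhamnose at OD600 near 0.5, cultures sampled hourly, flipped fraction per protease–substrate barcode pair counted by paired-end Illumina sequencing.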

Variant | area with substrate ENCYFQS | area with substrate ENDYFQS | area with substrate ENEYFQS | area with substrate ENFYFQS | area with substrate ENHYFQS | area with substrate ENIYFQS | area with substrate ENKYFQS | area with substrate ENNYFQS | area with substrate ENQYFQS | area with substrate ENSYFQS | area with substrate ENTYFQS | area with substrate ENVYFQS | area with substrate ENYYFQS | area with substrate ENMYFQS | area with substrate ENWYFQS | area with substrate ENGYFQS | area with substrate ENPYFQS | area with substrate ENRYFQS
P9Y | 0.0601 | 0.0528 | 0.0773 | 0.0686 | 0.0751 | 0.15 | 0.0554 | 0.0588 | 0.0504 | 0.0616 | 0.0742 | 0.0781 | 0.0364 |  |  |  |  | 
R10E | 0.0644 | 0.0443 |  | 0.0692 |  |  |  | 0.0653 | 0.0618 | 0.0735 | 0.061 | 0.0626 | 0.0555 | 0.0583 | 0.0615 |  |  | 
P14G | 0.0709 | 0.0595 | 0.0564 | 0.0625 | 0.0544 | 0.12 |  | 0.0637 | 0.0603 | 0.0608 | 0.0652 | 0.0667 |  | 0.0927 | 0.035 | 0.062 | 0.0565 | 0.0585
S18E | 0.0287 | 0.0573 | 0.0565 | 0.0611 |  |  |  | 0.0544 | 0.0554 | 0.0515 | 0.052 | 0.0636 |  |  | 0.0745 | 0.0583 |  | 0.0526
G28K | 0.0601 | 0.0453 | 0.0565 | 0.0627 |  | 0.0855 | 0.0599 | 0.0624 | 0.0541 | 0.0627 | 0.0528 | 0.0622 | 0.0735 |  |  |  |  | 0.0536
L33G | 0.0721 | 0.0569 | 0.0669 | 0.0678 | 0.0585 | 0.131 | 0.0666 | 0.0451 | 0.0682 | 0.0696 | 0.0626 | 0.0645 | 0.0675 | 0.0711 |  | 0.0619 |  | 0.0671
G39T | 0.0425 |  | 0.0313 | 0.0336 |  |  | 0.0475 | 0.0649 |  | 0.0387 |  | 0.0458 | 0.0677 | 0.0511 |  | 0.0415 | 0.0467 | 0.0442
N45C | 0.0615 | 0.0616 | 0.0629 | 0.0468 | 0.0624 |  | 0.0465 | 0.0586 | 0.0585 | 0.0493 | 0.0641 | 0.0866 | 0.0594 | 0.056 | 0.0638 | 0.0692 | 0.055 | 0.0742
N52K | 0.0546 | 0.0651 | 0.0709 | 0.0576 | 0.0651 |  | 0.0593 | 0.0592 | 0.057 | 0.0643 | 0.059 | 0.0689 |  |  | 0.0479 | 0.0537 |  | 
S60R | 0.0581 | 0.0566 | 0.0713 | 0.0547 |  |  | 0.0547 | 0.0635 | 0.0689 | 0.0597 | 0.0626 | 0.0537 | 0.0644 |  | 0.0208 | 0.0582 |  | 0.056
D69N | 0.065 | 0.0703 |  |  | 0.0463 | 0.0978 | 0.0628 | 0.0624 | 0.0451 |  |  |  |  | 0.0985 | 0.0242 | 0.0673 |  | 0.0869
T70H | 0.0576 | 0.0573 | 0.0635 |  | 0.062 | 0.0631 |  |  | 0.0538 | 0.0615 | 0.0415 |  | 0.066 | 0.0549 |  | 0.0577 |  | 
L77G | 0.0446 | 0.0547 | 0.0647 | 0.0661 | 0.0763 | 0.0757 | 0.0577 | 0.0479 | 0.059 | 0.0607 |  | 0.0601 |  | 0.0729 |  | 0.0758 | 0.0408 | 0.0544
D91F | 0.0668 | 0.0594 | 0.0556 | 0.0581 |  | 0.135 | 0.0587 |  | 0.0528 | 0.0661 | 0.0607 | 0.0729 | 0.0747 | 0.0875 |  | 0.0599 | 0.0706 | 0.0666
F101K | 0.0251 |  |  | 0.05 | 0.0382 |  |  | 0.0371 | 0.0461 | 0.0437 |  |  |  |  |  |  |  | 
M125S | 0.0709 | 0.074 | 0.0649 |  |  |  | 0.054 | 0.056 | 0.0709 |  |  |  |  |  |  |  |  | 
T129C | 0.0805 | 0.0604 | 0.0537 | 0.0598 | 0.0606 | 0.0993 | 0.0591 |  | 0.0611 | 0.0618 | 0.072 |  | 0.0452 | 0.075 | 0.0486 |  |  | 0.0629
T129F | 0.064 | 0.0625 | 0.0796 | 0.0575 | 0.0531 |  | 0.0797 |  | 0.0515 | 0.0645 | 0.0642 | 0.0849 |  |  |  |  |  | 0.0604
S130D | 0.0476 | 0.0623 | 0.0632 |  |  |  |  | 0.0752 | 0.0497 |  | 0.0691 | 0.0923 |  |  |  | 0.061 | 0.0595 | 0.067
F133V | 0.083 | 0.0599 |  | 0.0481 | 0.0745 | 0.111 |  |  | 0.0701 | 0.0556 | 0.0611 | 0.0724 | 0.0498 | 0.101 | 0.0669 | 0.0646 | 0.0768 | 0.0646
G136Y | 0.0588 | 0.0409 | 0.0706 | 0.0514 | 0.0619 | 0.12 | 0.0559 | 0.0583 | 0.0523 | 0.0606 | 0.0592 | 0.0698 | 0.0602 | 0.0846 |  |  |  | 0.0476
G138N | 0.0674 |  |  |  | 0.045 | 0.0862 |  | 0.0648 | 0.0681 | 0.115 |  | 0.0741 |  |  | 0.0559 |  |  | 
T147G | 0.0705 | 0.0514 | 0.0588 |  |  |  |  |  | 0.0487 |  | 0.0644 | 0.062 |  |  |  | 0.0568 |  | 0.0639
S154F | 0.0557 |  |  | 0.0703 |  | 0.106 | 0.0553 |  | 0.0617 |  |  | 0.0628 |  |  |  |  | 0.0623 | 
S154M | 0.0704 | 0.0788 |  |  | 0.0577 | 0.0859 | 0.0673 | 0.0687 | 0.0647 | 0.0592 |  |  |  |  | 0.0288 | 0.0675 | 0.0856 | 0.0504
L156G | 0.0363 | 0.0502 | 0.057 | 0.0412 |  |  |  | 0.0426 |  | 0.0685 | 0.0513 | 0.0673 |  | 0.0466 | 0 | 0.0493 | 0.0616 | 0.0421
L156S | 0.0638 | 0.0464 | 0.066 | 0.0627 | 0.0449 | 0.0668 |  |  | 0.0576 | 0.0611 |  | 0.0652 |  | 0.059 |  | 0.0387 |  | 
D161S | 0.0646 | 0.0596 | 0.0419 | 0.0547 | 0.0505 | 0.0775 |  | 0.0679 | 0.0587 | 0.0629 | 0.059 |  |  |  | 0.059 |  | 0.0587 | 0.0631

Source: the supplement of paper PMC12217912
